Results reported in the supplement of paper PMC3334620.
Over roughly 33,000 sequences, “E-score (-0.5 to 0.5)” has its median near -0.01; the highest 2% begin near 0.26. This is one part of the list.

Molecular target: Ste12 (UniProt P13574)
Experiment: PBM E-score (8-mer binding enrichment) (E-score (-0.5 to 0.5)); higher = stronger / more preferred TF binding; most listed sequences are background and not binding sites
Details: protein concentration: 200 nM; construct: GST-DNA-binding domain
Procedure, shortened: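 Detection of bound protein used fluorescent anti-GST, with scans normalised by masliner. The proteins were GST-tagged yeast transcription factors applied at about 100-200 nM to universal all-10-mer Agilent arrays made double-stranded by primer extension. Each ungapped eight-base word, pooled with its reverse complement, was scored with an E-score from the Universal PBM Analysis Suite.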

| Sequence | PBM E-score |
| --- | --- |
| AAGTAGGT | -0.0143 |
| CTCCTATC | -0.0959 |
| ATGCGGGA | 0.204 |
| ATTTTAAA | 0.348 |
| GTGTAAAA | 0.15 |
| CTTGCCAC | -0.166 |
| GTTGGGCA | -0.0559 |
| AGTGCTTA | 0.0157 |
| AGTGGGCC | -0.231 |
| GGTCTATA | -0.00369 |
| GCCTTTAC | 0.0563 |
| AATACACT | 0.063 |
| GGTATTGA | -0.0386 |
| AAGTCAAG | -0.0921 |
| CTTTGAAC | 0.0927 |
| TCAAACAA | 0.266 |
| ATGTTCTG | 0.0599 |
| CCATTCCG | -0.0471 |
| CACTTCAC | -0.0604 |
| AGCGCAAC | -0.154 |
| CGGATTGC | -0.0637 |
| ATTAAGAA | 0.192 |
| GAGAAATA | 0.176 |
| AATAAGGC | -0.0645 |
| ATCCAGAA | 0.141 |

| Sequence | PBM E-score |
| --- | --- |
| GGGTACCA | -0.241 |
| ATCGCCTA | -0.00374 |
| ACAGAGTA | -0.06 |
| CAGTCTGA | 0.0561 |
| GGACCTCC | -0.0674 |
| ATTCTCCC | -0.00819 |
| CGGTCGAA | 0.00203 |
| GCATTAGC | -0.141 |
| CGTGAGCC | -0.212 |
| CACCTCTC | -0.113 |
| CTAAGATA | 0.0814 |
| CAGTTCGG | 0.062 |
| ATGTGTCG | 0.208 |
| AGTTTATG | 0.116 |
| GAGCCGGC | 0.148 |
| TCATGAAA | 0.27 |
| AAAGTTCC | -0.119 |
| CATTGGTC | -0.176 |
| CACAAATC | 0.0808 |
| AACGAAAG | 0.0635 |
| GGGGTGGA | 0.00832 |
| GTTTTCGA | 0.0173 |
| AATCTTAT | 0.0186 |
| AACATGTA | 0.137 |
| AATGTAGT | 0.035 |

| Sequence | PBM E-score |
| --- | --- |
| ACTTGAGA | 0.142 |
| TCTACAAA | 0.138 |
| TGTGTGAA | 0.284 |
| ACCTTGGG | 0.0137 |
| AGGTGGCG | -0.0163 |
| ACTTTCCG | 0.0997 |
| AGCAATAC | -0.0279 |
| ATCAATTA | 0.289 |
| GCGCCGCC | 0.132 |
| ATTCTACG | -0.046 |
| GTAAGGTA | 0.151 |
| GTGTACTA | 0.0871 |
| GTCGGAAA | 0.257 |
| CGCCCGTC | 0.213 |
| AATACGGG | -0.0824 |
| ACAGCGCC | -0.0268 |
| AAGACCTA | -0.0739 |
| ACAGGTCA | -0.129 |
| CTCGGGTA | -0.0234 |
| ACCTTCTG | 0.109 |
| GAGTTCCC | -0.3 |
| AGAGTATA | -0.0264 |
| ATGAGCCG | -0.126 |
| AGACTTTC | 0.0873 |
| CTATCTCA | 0.0566 |

| Sequence | PBM E-score |
| --- | --- |
| AAACCCCC | -0.122 |
| ACATAATC | 0.222 |
| AGAGGAAT | -0.13 |
| GATGCGTA | -0.0997 |
| CAGTTCTC | -0.115 |
| CAAGCTTG | -0.0564 |
| ATGCCCTG | -0.157 |
| CTGAGTGA | 0.189 |
| AGTAGATC | -0.0712 |
| CAACAGTA | 0.106 |
| AATATTCA | 0.133 |
| AAGTCCCA | -0.102 |
| AATTTCAT | 0.0623 |
| CGGGACCA | -0.172 |
| ATTCCCCG | 0.0202 |
| CATTTGAG | -0.0634 |
| CACTGCTG | -0.12 |
| CACTTACA | 0.0904 |
| CCCTATCC | -0.158 |
| AAAGAAAT | 0.175 |
| GCTGTCGA | -0.0219 |
| AAAAAGCG | 0.317 |
| ACCGACAA | 0.0831 |
| GGGGCTCA | -0.115 |
| GCTATTCC | -0.12 |

| Sequence | PBM E-score |
| --- | --- |
| CGTCCTTA | -0.21 |
| GCGGGTCC | -0.0653 |
| GCCCCACA | 0.101 |
| AAAGAGCG | 0.0986 |
| AACAAGCC | -0.125 |
| CTCCACGA | -0.211 |
| GAATTGAC | 0.0316 |
| ATGCCTTG | -0.115 |
| CCAGGGCG | -0.256 |
| ACATCTGG | 0.042 |
| GAAGGAGC | -0.286 |
| TCGAACAA | 0.168 |
| CGTGGGAC | -0.103 |
| CTGGCTCA | 0.0252 |
| AATATAGG | 0.114 |
| GTAGACAA | -0.00663 |
| GCGTATAA | 0.168 |
| CATATTCG | -0.0199 |
| ATCGCTAC | 0.0654 |
| ACGGTATG | -0.039 |
| AGTTACCG | 0.128 |
| TGAACCAA | 0.152 |
| AAATCAAA | 0.254 |
| AGTTTGTC | 0.0062 |
| CGCGCTCC | 0.197 |

| Sequence | PBM E-score |
| --- | --- |
| AACTCCGG | 0.105 |
| GAGTGCTA | -0.0599 |
| ATCTATAG | 0.0127 |
| CTGATCCA | 0.0655 |
| ACATCAAG | 0.0747 |
| GCGCTCCA | -0.101 |
| GACCCGCA | -0.232 |
| CCTACTCC | -0.0851 |
| GAGGGGAA | 0.0394 |
| ACGTACTA | -0.0348 |
| CGATTCTC | -0.157 |
| GGCCCACC | -0.103 |
| AGACCCCT | -0.25 |
| ATCAATGA | 0.0644 |
| ATTCTTGG | 0.117 |
| ATTAAACC | 0.156 |
| CGGACGAA | 0.123 |
| ACGGGCCC | -0.199 |
| GGACTTGA | -0.354 |
| CGCATCGC | -0.171 |
| GAATCTCC | 0.0651 |
| CCCTTCTC | -0.181 |
| CTTGTGTA | 0.0226 |
| CCGAAAGA | 0.134 |
| ACCTCCTC | -0.0965 |

| Sequence | PBM E-score |
| --- | --- |
| CCTACGAA | -0.00146 |
| GAAGGTCA | -0.0998 |
| CCGTTCAC | -0.184 |
| CGACGGAG | 0.084 |
| ATTGATGG | 0.24 |
| CACCGGTG | 0.0993 |
| ATCGTCGC | -0.177 |
| CAGCGCGG | 0.0481 |
| GACAATAA | 0.0795 |
| CTAGTAAC | 0.0924 |
| CGACACTC | -0.116 |
| ATCCTCCG | -0.0456 |
| CAGTTAGG | -0.0508 |
| AGTCTTAG | -0.141 |
| AAATAGGG | 0.194 |
| GGCACTTA | -0.157 |
| TACGCCGA | -0.0362 |
| CACAGCTG | -0.0152 |
| CTCACGGC | 0.0191 |
| ATTGTACC | 0.00466 |
| GGTACCGA | -0.207 |
| AGCTCAGC | -0.398 |
| AACCATCG | 0.164 |
| ACGCAGGG | -0.0649 |
| AAGCGGGG | -0.116 |

| Sequence | PBM E-score |
| --- | --- |
| CGTTTAAG | 0.165 |
| CGCACTGC | 0.0271 |
| AAATTTAC | 0.197 |
| GAAAAACC | 0.22 |
| CTCGGTGC | -0.0947 |
| AAATGTGT | 0.181 |
| AGACGTCT | 0.0034 |
| AGCGAATA | 0.0711 |
| TCAATGCA | -0.107 |
| CTGATGTA | 0.166 |
| GTGAATCA | -0.0548 |
| AACTGTAC | -0.0609 |
| CCGGCCCC | -0.033 |
| GTTATACA | -0.0393 |
| GGGTAAAC | 0.119 |
| GAACAGTA | -0.0707 |
| ACCAGGGT | -0.0707 |
| CAGAATGG | 0.0221 |
| ACCTTGAG | 0.00829 |
| AACTCCGC | -0.0808 |
| CAGACCTA | -0.0484 |
| CAACGACA | 0.00954 |
| CCTTAGTA | -0.123 |
| ACGGGGAG | 0.109 |
| CGTAACAG | 0.205 |

| Sequence | PBM E-score |
| --- | --- |
| ATTCAAAG | 0.145 |
| CGCGGGTC | 0.128 |
| CGCAAGGC | 0.049 |
| ATCCTACA | 0.00602 |
| CGGAGCAC | -0.115 |
| ATCATGCG | 0.0662 |
| AACGTCAC | -0.0238 |
| GGGCGCAA | 0.085 |
| GGATTATA | 0.0754 |
| GATAAATA | 0.215 |
| GGCTAAAC | 0.188 |
| TGGTTGAA | 0.0241 |
| CACCGAAG | -0.093 |
| ATGATCCC | 0.0717 |
| AGTTCGAG | 0.0795 |
| AAATTCAC | 0.187 |
| ATGCCCAC | 0.0583 |
| CGGTTCTA | -0.0133 |
| CTCCAACC | 0.149 |
